Assay results from PubChem BioAssay AID504339 (National Center for Advancing Translational Sciences (NCATS), 2011).
The whole screen tested about 390,000 compounds, of which about 17,000 (4.4%) were called active. This list was built around the results that the source calls inconclusive (neither active nor inactive); the mix of calls is not that of the screen. Calls follow the shape of the dose curve; as a rule, active = well fitted inhibition curve with a large enough effect; inconclusive = small, poorly fitted or top-dose-only effect; inactive = no such curve, though single readings can be large or run the other way. Where the call is inconclusive, the potency comes from a doubtful curve fit.

These molecules were tested against Lysine-specific demethylase 4A (Homo sapiens) (UniProt O75164) (assay: qHTS Assay for Inhibitors of JMJD2A-Tudor Domain). Details: AlphaScreen JMJD2A-Tudor / H3K4me3 peptide binding; activity change, negative = inhibition: at 114 µM (top of the series).
UniProt O75164, sequence (O75164 whole entry, looked up, the tested form may be a part): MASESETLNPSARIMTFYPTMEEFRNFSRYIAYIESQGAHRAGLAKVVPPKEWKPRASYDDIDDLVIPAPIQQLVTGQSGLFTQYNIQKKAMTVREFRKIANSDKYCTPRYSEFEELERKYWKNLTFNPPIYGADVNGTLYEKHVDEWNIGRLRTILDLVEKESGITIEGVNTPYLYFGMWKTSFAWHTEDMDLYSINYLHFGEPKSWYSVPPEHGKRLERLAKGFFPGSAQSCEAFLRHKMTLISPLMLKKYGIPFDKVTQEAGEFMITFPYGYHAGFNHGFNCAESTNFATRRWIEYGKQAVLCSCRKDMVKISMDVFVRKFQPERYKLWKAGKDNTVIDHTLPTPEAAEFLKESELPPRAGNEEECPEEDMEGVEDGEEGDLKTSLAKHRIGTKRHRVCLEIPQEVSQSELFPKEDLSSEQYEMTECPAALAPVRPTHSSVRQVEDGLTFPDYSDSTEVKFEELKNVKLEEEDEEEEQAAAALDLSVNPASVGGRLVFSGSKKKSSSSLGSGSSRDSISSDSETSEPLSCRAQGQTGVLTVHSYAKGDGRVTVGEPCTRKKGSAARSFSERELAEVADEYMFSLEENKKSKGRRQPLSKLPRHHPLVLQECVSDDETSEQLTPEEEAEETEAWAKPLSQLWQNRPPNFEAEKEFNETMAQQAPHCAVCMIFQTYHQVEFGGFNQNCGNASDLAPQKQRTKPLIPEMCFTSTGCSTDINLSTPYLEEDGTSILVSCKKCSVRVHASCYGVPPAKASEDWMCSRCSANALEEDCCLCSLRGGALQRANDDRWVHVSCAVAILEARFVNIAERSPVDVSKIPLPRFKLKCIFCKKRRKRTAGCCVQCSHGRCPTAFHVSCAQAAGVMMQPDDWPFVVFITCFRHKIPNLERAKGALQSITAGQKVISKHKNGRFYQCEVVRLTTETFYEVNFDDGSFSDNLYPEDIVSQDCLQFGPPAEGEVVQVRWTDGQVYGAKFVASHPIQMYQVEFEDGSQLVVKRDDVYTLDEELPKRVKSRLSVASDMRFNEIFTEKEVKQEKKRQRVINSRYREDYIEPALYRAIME
% is scaled to controls: 0 for no effect and ±100 for the full control effect; potency is read from the fitted curve at half-maximal effect; tags tell the direction and shape of the fitted curve.
Also: nearly all actives have a fitted effect of over 50% in size.

Potency, active:
Fc1ccccc1N1CCN(Cc2cccnc2)CC1 1.58 µM
CCC[n+]1c(C)sc2c(OC)ccc(OC)c21 15.8 µM
Cc1nn(-c2ccccc2)c(N)c1N=Nc1ccccc1 56.2 µM
O=C(CSc1ccccn1)N1CCN(c2cccc(Cl)c2)CC1 79.4 µM
Cc1cc(C)nc(NNC2=CC(=[N+]3CCCC3)CCC2)n1 3.16 µM
CCc1ccc(N=C2NC(=O)/C(=C/c3ccc(OCC(=O)O)c(OC)c3)S2)cc1 28.2 µM
CC(C)Nc1nc(NC(C)C)nc(N(C)N)n1 35.5 µM
Cc1ccc2nc3c(c(N)c2c1)CCN3c1ccccc1 0.794 µM
O=C1OC(c2cccs2)=N/C1=C/c1ccc(-c2cccc(C(=O)O)c2)o1 50.1 µM
CC(C)Cn1c(-c2ccccc2F)n[nH]c1=S 3.98 µM
COc1cccc(NC(=O)CSc2nnc(-c3cccc(OC(C)C)c3)n2N)c1 56.2 µM
COc1ccc(C2NC(C(=O)O)Cc3c2[nH]c2ccccc32)cc1OC (stereo unspecified) 3.16 µM
CCN1CCN(C(=S)NCC2CCCO2)CC1 (stereo unspecified) 7.94 µM
CN(C)/N=C/c1ccc(P(c2ccc(/C=N/N(C)C)o2)c2ccc(/C=N/N(C)C)o2)o1 17.8 µM

Potency, inconclusive:
COc1ccc(NC(=S)NNC(=O)COc2ccc(Cl)cc2Cl)cc1 70.8 µM [inhibitor, single point]
CCc1nnc(-n2nc(C)cc2-c2ccccc2)n1N 89.1 µM [inhibitor, single point]
CCc1nn(CCCC(=O)N2CCN(c3cc(Cl)ccc3C)CC2)c(=O)c2cc3occc3n12 25.1 µM [inhibitor, full curve]
CCN(CC)S(=O)(=O)c1ccc(S(=O)(=O)N(CC(=O)Nc2ccccc2)Cc2ccco2)cc1 63.1 µM [inhibitor, partial curve, poor fit]
COc1ccc(C(=S)N2CCOCC2)cc1OC(=O)c1ccc(C)cc1 56.2 µM [inhibitor, partial curve]
CCCCCCC1(C)NC(=S)N(c2ccccc2)N1 (stereo unspecified) 15.8 µM [inhibitor, full curve]
O=C(Nc1ccc(Oc2ccc(NC(=O)Nc3ccc([N+](=O)[O-])cc3)cc2)cc1)Nc1ccc([N+](=O)[O-])cc1 14.1 µM [inhibitor, full curve, poor fit]
CCn1c(C)nc2cc(C(=O)N/N=C/c3cccc(OC)c3O)ccc21 63.1 µM [inhibitor, partial curve, poor fit]
COc1ccc(C2c3[nH]c4ccccc4c3CCN2CCCn2cccn2)c(C)c1C (stereo unspecified) 20 µM [inhibitor, full curve]
Cn1cccc1CC(=O)N/N=C/C=C/c1ccco1 44.7 µM [inhibitor, partial curve]
C=CCOc1ccc(Br)cc1/C=C1/SC(=Nc2ccc(C(=O)O)cc2)NC1=O 50.1 µM [inhibitor, partial curve]
CCCN1C(=O)/C(=C\c2ccncc2)SC1=Nc1ccccc1 56.2 µM [inhibitor, partial curve]
c1ccc2c(c1)CCN(c1nc3ccccc3n3cnnc13)C2 3.16 µM [inhibitor, full curve]
CC1=NN(c2nc(-c3ccc(C)cc3)cs2)C(=O)C1N=Nc1ccc2ccccc2c1 (stereo unspecified) 31.6 µM [inhibitor, partial curve, poor fit]
COc1ccc(N2CCN(C(=O)c3ccc(CNS(=O)(=O)c4ccc(C)cc4)cc3)CC2)cc1 39.8 µM [inhibitor, partial curve]
Oc1[nH]c2ccccc2c1C=Nc1ccc2c(c1)OCCO2 20 µM [inhibitor, full curve]
COc1ccc(S(=O)(=O)N2CCC[C@H]2C(=O)NC2=NCCS2)cc1 17.8 µM [inhibitor, full curve, poor fit]
O=C(C1CCN(S(=O)(=O)c2cnc[nH]2)CC1)N1CCN(Cc2ccc3c(c2)OCO3)CC1 3.98 µM [inhibitor, single point]
Cc1ccc(/C=N/Nc2cn[nH]c(=O)n2)o1 35.5 µM [inhibitor, partial curve, poor fit]
O=C(c1cc2c(s1)CCCC2)N1CCN(Cc2ccc3c(c2)OCO3)CC1 56.2 µM [inhibitor, partial curve]
CCOC(=O)c1c(C)[nH]c(C)c1C(=O)COC(=O)C1CC(=O)N(CCc2ccccc2)C1 (stereo unspecified) 63.1 µM [inhibitor, partial curve, poor fit]
O=C(N/N=C/c1c(O)n(-c2ccccc2Cl)c(=O)c2ccccc12)C1COc2ccccc2O1 (stereo unspecified) 70.8 µM [inhibitor, partial curve, poor fit]
O=C1C2CC=CCC2C(=O)N1c1ccc(NCCc2ccccc2F)c([N+](=O)[O-])c1 (stereo unspecified) 28.2 µM [inhibitor, single point]
COc1cccc(C2c3c(-c4ccccc4O)n[nH]c3C(=O)N2Cc2ccco2)c1 (stereo unspecified) 63.1 µM [inhibitor, partial curve]
O=C1CCCCC/C1=N/Nc1ccc(OCc2ccccc2)cc1 70.8 µM [inhibitor, partial curve]
O=C1CC(c2ccc(Cl)cc2)CC(O)=C1C=NCCO (stereo unspecified) 31.6 µM [inhibitor, single point]
CN(CC(=O)Nc1ccc(Cl)c(C(F)(F)F)c1)C(=O)c1cc(-c2ccncc2)nc2ccccc12 11.2 µM [inhibitor, partial curve]
Cc1sc(NC(=O)C2C3CCC(O3)C2C(=O)O)nc1-c1ccc(CC(C)C)cc1 (stereo unspecified) 39.8 µM [inhibitor, single point]
c1ccc(-c2oc3ncnc(NCCCN4CCOCC4)c3c2-c2ccccc2)cc1 63.1 µM [inhibitor, partial curve]
CCOC(=O)CCCSc1nc(-c2ccc3c(c2)OCO3)cc(C(F)(F)F)c1C#N 39.8 µM [inhibitor, single point]
CCn1c(SCC(=O)N/N=C/C=C/c2ccco2)nc2ccccc21 39.8 µM [inhibitor, partial curve]
CCN(CC)S(=O)(=O)c1ccc(Cl)c(C(=O)Nc2ccc(Cl)cc2[N+](=O)[O-])c1 22.4 µM [inhibitor, full curve]
COc1ccc(S(=O)(=O)NCC(c2ccco2)N2CCN(c3ccccc3)CC2)cc1OC (stereo unspecified) 63.1 µM [inhibitor, partial curve]
CCOC(=O)c1cc(-c2ccccc2)n(CCCC(=O)Nc2cccc(C)c2C)c1C 63.1 µM [inhibitor, partial curve, poor fit]
CCN=c1scc(C)n1/N=C/c1cc(Br)c(O)c(Br)c1 50.1 µM [inhibitor, partial curve]
COC(=O)c1sc(N2CCN(c3ccc(Cl)cc3)CC2)nc1N 44.7 µM [inhibitor, partial curve]
COc1cc(-c2nnc3sc(Cc4ccccc4)nn23)cc(OC)c1OC 56.2 µM [inhibitor, partial curve]
O=[N+]([O-])c1cc(Cl)ccc1N1CCCCC1 11.2 µM [inhibitor, full curve]
COc1ccc(S(=O)(=O)Nc2ccc(N3CCOCC3)cc2)cc1Br 79.4 µM [inhibitor, partial curve]
CCC(C)(C)n1nnnc1C(c1cc2cc(OC)ccc2[nH]c1=O)N1CCc2ccccc21 (stereo unspecified) 39.8 µM [inhibitor, partial curve]

Potency, inactive:
COc1ccccc1Nc1sc(C(=O)c2ccc3c(c2)OCO3)c(N)c1S(=O)(=O)c1ccccc1
CC(C)O/C(=N\S(=O)(=O)c1ccc(Cl)cc1)c1ccccc1
O=C(OCC#CCSc1nnc(-c2ccc3ccccc3c2)o1)c1cccs1
COc1ccc2nc(SCC(=O)NC(C)C)[nH]c2c1
O=C(NC1CCN(C(=O)NCc2ccccc2)CC1)c1cccc(F)c1
COc1ccc(CN(C)C(=O)c2ccc(Cl)c(S(=O)(=O)NCc3cccnc3)c2)cc1F
C=CCn1c(COc2ccc(Cl)cc2)nnc1SCC(=O)NCC(=O)OCC
Cc1ccc(CCNC(c2ccc(F)cc2)c2nnc(-c3ccccc3Cl)o2)cc1 (stereo unspecified)
CC(C)OCCCNC(=O)c1sc(=S)n(C)c1N
CCOC(=O)c1c(-c2ccc(F)cc2)csc1/N=C/N(C)C
Cc1ccccc1C(=O)NC(=S)Nc1ccccc1[N+](=O)[O-]
Cc1ccc2nc(SCC(=O)NNC(=O)c3ccccc3)[nH]c2c1
Cc1cc(C)n(-c2ccc(C(=O)O)cc2)n1
N#Cc1ccccc1Cn1c(=O)n(-c2cccc(C(F)(F)F)c2)c(=O)c2sccc21
O=C(CN1CCCCCC1)Nc1ccc(Cl)cc1F
Cc1nc2ccccc2c(=O)n1/N=C/c1ccco1

Activity change, negative = inhibition, inactive:
COc1cccc2cc(-c3csc(CCn4nc(C)cc4C)n3)c(=O)oc12 -2.74% [at 11.4 µM]
